Source: PubChem BioAssay AID1745853 (National Center for Advancing Translational Sciences (NCATS), 2022)
Several values for one entry are separate records, joined by “and”; a condition that tells them apart may be missing. Equal values may be shown once. The list shows a part of the results. Shown are side measurements of this screen, not its main read-out; they come without a call.

Assays:
Experiment in all cases: Primary Screen for Target Class Profiling of Small Molecule Inhibitors of Methyltransferases
[1] = biological target: Glycine N-methyltransferase (Homo sapiens) (UniProt Q14749); details: purified enzyme, MTase-Glo SAH luminescence; measured here: GNMT inhibition; at 40 µM; stronger effect = lower value
How it was run: (§1)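 Each enzyme was assayed with SAM and its substrate. SAH formation detected by MTase-Glo luminescence; single-point 40 uM screen[…].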

[2] = biological target: Guanidinoacetate N-methyltransferase (Homo sapiens) (UniProt Q14353); details: purified enzyme, MTase-Glo SAH luminescence; measured here: GAMT inhibition; at 40 µM; stronger effect = lower value
How it was run: as §1

[3] = biological target: Histamine N-methyltransferase (Homo sapiens) (UniProt P50135); details: purified enzyme, MTase-Glo SAH luminescence; measured here: HNMT inhibition; at 40 µM; stronger effect = lower value
How it was run: as §1

[4] = biological target: Nicotinamide N-methyltransferase (Homo sapiens) (UniProt P40261); details: purified enzyme, MTase-Glo SAH luminescence; measured here: NNMT inhibition; at 40 µM; stronger effect = lower value
How it was run: as §1

[5] = biological target: Phenylethanolamine N-methyltransferase (Homo sapiens) (UniProt P11086); details: purified enzyme, MTase-Glo SAH luminescence; measured here: PNMT inhibition; at 40 µM; stronger effect = lower value
How it was run: as §1
On the % scale 0 is the no-effect control and ±100 the full control effect.

Row | SMILES | activity change, negative = inhibition [1] | activity change, negative = inhibition [2] | activity change, negative = inhibition [3] | activity change, negative = inhibition [4] | activity change, negative = inhibition [5]
1 | O=C(Nc1ccccc1Cl)N1Cc2ccccc2-n2cccc2C1c1cccs1 (stereo not given) | 8.25% | 3.57% | 3.73% | -3.05% | 9.75%
2 | CCOc1ccc(C2c3cccn3-c3ccccc3CN2C(=O)Nc2cc(C)ccc2OC)cc1 (stereo not given) | 0.333% | 0% | -2.83% | 4.63% | 5.88%
3 | CCC1c2cccn2-c2ccccc2CN1C(=O)Nc1cc(OC)ccc1OC (stereo not given) | 1.53% | 0% | 3.14% | -0.755% | 4.16%
4 | CCC1c2cccn2-c2ccccc2CN1C(=O)Nc1ccccc1F (stereo not given) | -7.2% | 0% | -2.09% | -4.44% | 0.964%
5 | CSc1ccc(C2c3cccn3-c3ccccc3CN2C(=O)Nc2cc(C)cc(C)c2)cc1 (stereo not given) | 3.44% | 1.74% | 0.988% | 5.31% | 6.76%
6 | Cc1ccc(CNC(=O)N2Cc3ccccc3-n3cccc3C2c2ccc(C)cc2)cc1 (stereo not given) | 13.1% | 0.249% | 7.46% | 9.93% | 8.31%
7 | COc1ccc(NC(=O)N2C[C@@H]3C[C@H](C2)c2c(NC(=O)CSC)ccc(=O)n2C3)cc1 | -7.73% | -8.44% | -6.58% | -11.2% | -5.35%
8 | Cc1cccc(NC(=O)NC2N=C(c3ccccc3)c3ccccc3N(CC(=O)c3ccccc3C)C2=O)c1 (stereo not given) | 0.339% | -35% | 10.2% | -48.6% | -11.2%
9 | Cc1ccc(NC(=O)N2Cc3ccccc3-n3cccc3C2C(C)C)c(C)c1 (stereo not given) | 1.39% | 0% | 6.89% | 2.93% | 7.02%
10 | COc1ccc(NC(=O)N2Cc3ccccc3-n3cccc3C2c2ccccc2Cl)c(OC)c1 (stereo not given) | 6.96% | 4.55% | 8.28% | -6.87% | -2.63%
11 | O=C(NCc1ccc(F)cc1)[C@H]1CN2CCC1C[C@@H]2Cn1cc(CSc2ccccc2)nn1 (stereo not given in full) | -3.61% | -7.42% | 0.634% | -9.62% | -0.339%
12 | COC1CC(O[C@H]2CC[C@]3(C=O)C4CC[C@]5(C)[C@@H](C6=CC(=O)OC6)CC[C@]5(O)[C@@H]4CC[C@]3(O)C2)OC(C)C1O[C@@H]1O[C@H](CO)[C@@H](O)[C@H](O)[C@H]1O (stereo not given in full) | 4.77% | 2.84% | 3.3% | -8.82% | 5.37%
13 | CCCN1CCC[C@@H]2Cc3[nH]ncc3C[C@H]21 | -7.77% and 3.01% | 3.13% and 10% | -7.31% and 3.49% | -1.91% and -4.37% | 3.4% and 1.91%
14 | CCCCCn1cc(C(=O)Cc2ccccc2OC)c2ccccc21 | 1.24% | -16.3% | 1.3% | -24.4% | -13.4%
15 | C[C@@H](N)Cc1cnc[nH]1 | -1.42% | 10% | 108% | -1.59% | 10.4%
16 | O=C(Nc1ccccc1F)N1Cc2ccccc2-n2cccc2C1c1ccc(F)cc1 (stereo not given) | -2.06% | -1.07% | -2.26% | -6.15% | -0.011%

Row | SMILES | activity change, negative = inhibition [1] | activity change, negative = inhibition [2] | activity change, negative = inhibition [3] | activity change, negative = inhibition [4] | activity change, negative = inhibition [5]
17 | Clc1cc(I)cc(Cl)c1NC1=NCCN1 | 5.89% | 10.7% | 2.67% | -6.11% | 0.266%
18 | COCCCNC(=O)N1Cc2ccccc2-n2cccc2C1c1ccc(C(C)C)cc1 (stereo not given) | -3.04% | 0% | 6.5% | -4.38% | 0.38%
19 | Cc1ccc(C2c3cccn3-c3ccccc3CN2C(=O)Nc2ccc(Cl)cc2)cc1 (stereo not given) | 12.1% | 0% | 0.191% | 1.33% | 1.12%
20 | O=C1CN=C(c2ccccc2Cl)c2cc(Br)ccc2N1 | -23.3% | -31.3% | -11.3% | -45.9% | -16.4%
21 | C[C@@H]1O[C@@H](O[C@H]2C[C@@H](O)[C@]3(CO)[C@H]4[C@H](O)C[C@]5(C)[C@@H](C6=CC(=O)OC6)CC[C@]5(O)[C@@H]4CC[C@]3(O)C2)[C@H](O)[C@H](O)[C@H]1O | -5.21% and 6.08% | 2.03% and 8.14% and 2.34% | -2.38% and 5.31% | -7.67% and -2.67% and -9.18% | 0.685% and 7.63% and -0.315%
22 | CCc1ccccc1NC(=O)N1Cc2ccccc2-n2cccc2C1c1ccccc1 (stereo not given) | 2.72% | 0% | 3.8% | 2.42% | 2.82%
23 | CCC1c2cccn2-c2ccccc2CN1C(=O)Nc1cc(Cl)ccc1OC (stereo not given) | 4.56% | 2.64% | 3.67% | 4.75% | 7.47%
24 | CCc1ccc(C2c3cccn3-c3ccccc3CN2C(=O)Nc2cc(C)ccc2C)cc1 (stereo not given) | 4.24% | 1.04% | -0.286% | 2.4% | 5.37%
25 | CCOC(=O)CNC(=O)N1Cc2ccccc2-n2cccc2C1c1ccc(Cl)cc1 (stereo not given) | -3.04% | 6.1% | -8.23% | -5.14% | 3.41%
26 | CC1=CC2/C=C(\C)CCC(O)C3OC(C)(C)OC3CC(=O)OC23C(=O)NC(CC(C)C)C3C1C (stereo not given) | -0.183% | 5.39% | 1.49% | -9.91% | 5.11%
27 | NC(=O)COc1c(F)cc(SCCNS(=O)(=O)c2ccccc2)cc1F | -10.9% | 1.89% | -2.23% | -26.8% | 3.23%
28 | CCCNC(=O)N1Cc2ccccc2-n2cccc2C1c1ccccc1 (stereo not given) | 3.27% | 7.62% | -3.05% | -5.9% | 1.91%
29 | CC(C)c1ccc(C2c3cccn3-c3ccccc3CN2C(=O)Nc2ccc3c(c2)OCCO3)cc1 (stereo not given) | -5.42% | -1.3% | 1.26% | -2.19% | -1.73%
30 | CCCN1CCC[C@H](c2cccc(O)c2)C1 | 9.33% | 12% | -12.8% | -2.13% | 4.17%
31 | O=C(Nc1ccccc1)N1Cc2ccccc2-n2cccc2C1c1cccc(Cl)c1 (stereo not given) | 11.2% | 1.08% | 2.82% | 4.54% | 8.31%
